The results in this text go back to PubChem BioAssay (NCI).

The subject of the test is NCI-H322M lung. As to the kind of experiment: NCI anticancer screen, dose series, 48 h.

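A five-concentration, 48-hour dose response in 96-well plates underlies each endpoint, interpolated linearly between surrounding concentrations. Here, GI50 denotes the concentration required for 50% inhibition of growth. TGI is the concentration that stops growth completely.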

Consider `Nc1cc(F)ccc1NC(=O)c1ccc(NC(=O)C/C=C/c2cccnc2)cn1`, for which the GI50 is 2.29 µM and the TGI is over 50 µM.
